The text below walks through data of patent publication US20250382361A1 (UNIVERSITY OF OREGON, published 2025).

Test [1] has as its target T1, Recombinant FGF-2 (fibroblast growth factor 2) (UniProt P09038 143-288, limits assumed, biotinylated (bFGF-2) in flow cytometry and BLI).
T1 construct: also called bFGF-2; biotinylated FGF-2
In words: yeast surface display, flow cytometry with bFGF-2.

Test [2] addresses T2, Recombinant VEGF165 (vascular endothelial growth factor) (UniProt P15692-4 27-191, biotinylated (bVEGF) in flow cytometry and BLI).
T2 construct: also called VEGF-A (165); bVEGF
T2 sequence (looked up): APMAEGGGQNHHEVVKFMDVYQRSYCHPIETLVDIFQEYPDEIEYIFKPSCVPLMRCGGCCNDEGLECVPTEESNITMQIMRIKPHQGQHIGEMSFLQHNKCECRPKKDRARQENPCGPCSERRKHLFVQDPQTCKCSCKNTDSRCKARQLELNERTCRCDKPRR
The test is described as follows: flow cytometry, yeast-displayed affibody with biotinylated target. In general terms: A flow cytometer gives signals particle by particle.

The target of test [3] is T3, Interleukin-4 (IL-4), biotinylated (UniProt P05112 25-153, biotinylated (bIL-4)).
T3 construct: also called bIL-4
T3 sequence (looked up): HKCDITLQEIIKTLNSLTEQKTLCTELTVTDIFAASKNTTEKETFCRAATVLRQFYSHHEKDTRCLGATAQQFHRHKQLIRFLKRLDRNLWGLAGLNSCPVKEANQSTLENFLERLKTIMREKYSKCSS
The test is described as follows: method not stated; Example 16 describes yeast surface display flow cytometry.

In test [4] the target is T4, Recombinant human BMP-2 (bone morphogenetic protein 2) (human, UniProt P12643 283-396, biotinylated with Sulfo-NHS-Biotin (bBMP-2) in flow cytometry and BLI).
T4 construct: Bought protein; also called bBMP-2; bBMP
T4 sequence (looked up): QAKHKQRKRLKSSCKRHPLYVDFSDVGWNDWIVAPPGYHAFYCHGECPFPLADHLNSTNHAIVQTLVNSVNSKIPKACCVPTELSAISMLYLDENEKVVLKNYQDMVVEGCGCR
The test is described as follows: flow cytometry, yeast-displayed affibody titrated with bBMP-2 0.5-1000 nM. From the text:
Yeast clones with names starting with the letter A were identified using the gating approach in FIG. 2A, and yeast clones with names starting with B were identified using the gate approach in FIG. 2B. The affibodies chosen for further characterization are boxed in the legend.

For test [5], the target named is T2, Recombinant VEGF165 (vascular …). In words: biolayer interferometry, 25 nM bVEGF on streptavidin probes, 1000 nM soluble affibody. In general terms: BLI is a label-free optical method that tracks binding on a fibre tip over time.
The target of test [6] is T5, Recombinant human PDGF-BB (platelet-derived growth factor) (human, UniProt P01127 82-190, biotinylated (bPDGF) in flow cytometry and off-target BLI; not biotinylated in the Ni-NTA BLI).
T5 construct: also called rhPDGF-BB; bPDGF
The test is described as follows: biolayer interferometry, 25 nM bPDGF on streptavidin probes, 1000 nM soluble affibody.

Test [7] addresses T2, Recombinant VEGF165 (vascular …). The test is described as follows: BLI, 25 nM bVEGF on streptavidin probes.
In test [8] the target is T5, Recombinant human PDGF-BB …. In words: BLI, affibody on Ni-NTA probes, soluble PDGF (method not stated in Table 1).
For test [9] the target is unchanged. The test is described as follows: BLI, 200 nM His-tagged affibody on Ni-NTA probes, PDGF 1.563-50 nM, global fit.
Test [10] has as its target T6, Granulocyte-macrophage colony-stimulating factor (GM-CSF), biotinylated (UniProt P04141 18-144, biotinylated (bGM-CSF)).
T6 construct: also called bGM-CSF
The test is described as follows: yeast surface display, flow cytometry with biotinylated GM-CSF.

Test [11] has as its target T5, Recombinant human PDGF-BB …. The test is described as follows: biolayer interferometry, 25 nM bPDGF on streptavidin probes, 1000 nM soluble affibody. The source holds these as a separate data set.
Test [12] addresses T1, Recombinant FGF-2 (fibroblast growth …). In words: biolayer interferometry, 25 nM bFGF-2 on streptavidin probes, 1000 nM soluble affibody.
The target in test [13] is T2, Recombinant VEGF165 (vascular …). The test is described as follows: BLI, 25 nM bVEGF on streptavidin probes, soluble affibody 31.25-1000 nM, global fit.
The target in test [14] is T5, Recombinant human PDGF-BB …. In words: biolayer interferometry; 25 nM bPDGF on streptavidin probes, 1000 nM soluble affibody as analyte.
The target of test [15] is T2, Recombinant VEGF165 (vascular …). The test is described as follows: BLI.
Test [16] shares this target. In words: method not stated in Table 1 (yeast surface display or BLI per paragraph 316).

Substitutions are numbered along the chain they refer to. Numbers in names are those of the source.

T1 sequence (P09038 143-288 limits assumed): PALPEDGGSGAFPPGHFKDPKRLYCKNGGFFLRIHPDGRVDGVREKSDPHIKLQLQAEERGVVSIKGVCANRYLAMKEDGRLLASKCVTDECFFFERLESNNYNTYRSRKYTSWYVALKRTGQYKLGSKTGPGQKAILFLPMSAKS
T6 sequence (P04141 18-144 limits assumed): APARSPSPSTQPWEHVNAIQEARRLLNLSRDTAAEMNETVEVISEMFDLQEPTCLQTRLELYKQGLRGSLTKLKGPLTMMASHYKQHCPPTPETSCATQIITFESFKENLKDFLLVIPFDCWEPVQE
T5 sequence (P01127 82-190): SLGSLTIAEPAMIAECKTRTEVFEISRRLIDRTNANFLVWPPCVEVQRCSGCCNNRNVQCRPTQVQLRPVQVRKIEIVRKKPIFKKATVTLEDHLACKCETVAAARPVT

B1: FGF-2 affibody FG3-C4 (Low) (SEQ ID NO: 44), yeast-displayed (designed binder)
chain: AEAKYNKEVFDADCSIWYLPNLTRYQISAFQSALDDDPSQSSELLSEAKKLNDSQAPK
notes: also called FGF-2 Low Affibody
B1: the Kd (usually a measure of binding affinity in units of concentration) in test [1] is 4550 nM. The binding result in [2] is recorded as “no binding”.

B2: IL-4 affibody G3H-C7 (SEQ ID NO: 62) (designed binder)
chain: AEAKYTKELSDANAEIWSLPNLTVDQLVAFIFALWDDPSQSSELLSEAKKLNDSQAPK
For the molecule B2, binding in test [3] was put at a Kd of 92000 nM.

B3: BMP-2 affibody A2-3 (SEQ ID NO: 7), yeast-displayed (designed binder)
chain: AEAKYYKERRAAAVVIFYLPNLTRVQKGAFIEALDDDPSQSSELLSEAKKLNDSQAPK
Regarding B3, the binding result in [4] is listed as “binds”.

B4: IL-4 affibody G3H-C3 (SEQ ID NO: 61) (designed binder)
chain: AEAKYNKELDAADADVEIWLLPNLTLDQLLAFIAALFNDPSQSSELLSEAKKLNDSQAPK
Molecule B4 displayed a Kd in test [3] of 4 nM.

B5: FGF-2 High Affibody FG2-C1 (SEQ ID NO: 42), soluble with hexahistidine tag and C-terminal cysteine (designed binder)
chain: AEAKYTKEGSDAFDVIVLLPNLTRDQRDAFLYALLDDPSQSSELLSEAKKLNDSQAPKHHHHHHC
notes: Soluble, expressed in E. coli
For the molecule B5, the binding result in test [5] was “no binding (tested: 1000 nM)”; in test [6] it was “binds”.

B6: PDGF Affibody-16 (SEQ ID NO: 80), soluble with hexahistidine tag and C-terminal cysteine (designed binder)
chain: AEEKYMMEAHWALMEILNLPNLHPCQQDAFWLALWDDPSQSSELLSEAKKLNDSQAPKHHHHHHC
notes: soluble, expressed in E. coli; also called 0032; 0032/Affibody-16 (High)
For the molecule B6, the binding result in test [7] is “no binding (tested: 1000 nM)”. Further, in test [8], the Kd is 5.86 nM. In addition, in test [9], the Kd was found to be 5.87 nM, the koff (usually a measure of how fast the partners let go of each other) stood at 0.00264 s⁻¹ and the kon (commonly the second-order rate constant of association) was found to be 450000 M⁻¹ s⁻¹.

B7: GM-CSF affibody GM4-C4 (Mid affinity) (SEQ ID NO: 13), yeast-displayed (designed binder)
chain: AEAKYNKEWFAADLSIGFLPNLTLDQLYAFVFALYDDPSQSSELLSEAKKLNDSQAPK
The molecule B7 showed a Kd in test [10] of 971 nM.

B8: FGF-2 Low Affibody FG3-C4 (SEQ ID NO: 44), soluble with hexahistidine tag and C-terminal cysteine (designed binder)
chain: AEAKYNKEVFDADCSIWYLPNLTRYQISAFQSALDDDPSQSSELLSEAKKLNDSQAPKHHHHHHC
notes: Soluble, expressed in E. coli
Take B8: the binding result is recorded as “no binding (tested: 1000 nM)” in test [5] and “binds” in test [6].

B9: PDGF Affibody-11 (SEQ ID NO: 58), soluble with hexahistidine tag and C-terminal cysteine (designed binder)
chain: AEAKYAHELWEADWEITNLPNLSPDQLMAFYMALWDDPSQSSELLSEAKKLNDSQAPKHHHHHHC
notes: soluble, expressed in E. coli; also called 0010; 0010/Affibody-11
Take B9: in test [7], the binding result is on record as “no binding (tested: 1000 nM)”. Besides, the Kd in test [8] amounted to 6.44 nM. For the same molecule, in [9], the Kd was 6.44 nM, the koff was found to be 0.00311 s⁻¹ and the kon was 476000 M⁻¹ s⁻¹.

B10: VEGF affibody TM2 (High Affinity) (SEQ ID NO: 20), soluble with hexahistidine tag and C-terminal cysteine (designed binder)
chain: AEAKYYKEGATAYRVIEYLPNLTGAQKAAFIDALYNDPSQSSELLSEAKKLNDSQAPKHHHHHHC
notes: Soluble, expressed in E. coli; also called VEGF High Affibody
Take B10: the binding result in test [11] and in test [12] was “no binding (tested: 1000 nM)” throughout.

B11: GM-CSF affibody GM3-C1 (SEQ ID NO: 17), yeast-displayed (designed binder)
chain: AEAKYNKEVGTANFEIVLLPNLTLYQMLAFIKALVNDPSQSSELLSEAKKLNDSQAPK
The molecule B11 came in with a Kd in [10] of 297 nM.

B12: PDGF Affibody (SEQ ID NO: 60), soluble with hexahistidine tag and C-terminal cysteine (designed binder)
chain: AEAKYAKELDDASVEIWDLPNLTPCQKVAFFVALYDDPSQSSELLSEAKKLNDSQAPKHHHHHHC
notes: Soluble, expressed in E. coli; also called BM_6; original PDGF affibody
As to B12, in [9], the Kd was determined as 3.28 nM, the koff turned out to be 0.000592 s⁻¹ and the kon amounted to 180000 M⁻¹ s⁻¹.

B13: VEGF Affibody (SEQ ID NO: 22), soluble with hexahistidine tag and C-terminal cysteine (designed binder)
chain: AEAKYNKEWYDAVFVIGSLPNLTEDQKDAFSDALVDDPSQSSELLSEAKKLNDSQAPKHHHHHHC
notes: Soluble, expressed in E. coli; also called BR2; original VEGF affibody
With B13, in test [13], the dissociation constant Kd was 89.8 nM, the koff stood at 0.00386 s⁻¹ and the kon worked out at 43000 M⁻¹ s⁻¹. Besides, the binding result in [14] is “no binding (tested: 1000 nM)”.

B14: VEGF Affibody-D32A (SEQ ID NO: 78), soluble with hexahistidine tag and C-terminal cysteine (designed binder)
chain: B13 chain with D32A
notes: soluble, expressed in E. coli
As for B14, the “fold reduction in affinity compared to the original VEGF affibody” value in test [15] is 10000 fold. Also, the Kd is 4190 nM in test [16] and 984000 nM in test [13]. In [13], the koff was found to be 0.00769 s⁻¹. The binding result in test [11] and in test [12] was “no binding (tested: 1000 nM)” each time.

B15: VEGF Affibody-D36A (SEQ ID NO: 79), soluble with hexahistidine tag and C-terminal cysteine (designed binder)
chain: B13 chain with D36A
notes: soluble, expressed in E. coli
Take B15: in test [15], the “fold reduction in affinity compared to the original VEGF affibody” value was 20 fold. For the same molecule, the Kd in test [16] is 109 nM. Also, in test [13], the Kd stood at 2050 nM, the dissociation rate constant (koff) was 0.00837 s⁻¹ and the kon was determined as 4080 M⁻¹ s⁻¹. Also, in [14], the binding result is reported as “no binding (tested: 1000 nM)”.

B16: GM-CSF affibody GM4-C2 (SEQ ID NO: 19), yeast-displayed (designed binder)
chain: AEAKYYKEGFYANFVIGALPNLTLVQRAAFYFALLNDPSQSSELLSEAKKLNDSQAPK
With B16, binding in [10] was characterised by a dissociation constant (Kd) of 787 nM.

B17: GM-CSF affibody GM3-C4 (High Affinity) (SEQ ID NO: 12), yeast-displayed (designed binder)
chain: AEAKYTKELFNAVGEITALPNLTRYHLYAFYYALLNDPSQSSELLSEAKKLNDSQAPK
For the molecule B17, in test [10], the Kd is 441 nM.

B18: BMP-2 affibody A1-1 (SEQ ID NO: 4), yeast-displayed (designed binder)
chain: AEAKYNKEVTAAANSIWVLPNLTGDQKAAFFEALLDDPSQSSELLSEAKKLNDSQAPK
Regarding B18, the binding result in test [4] was “binds”.

B19: FGF-2 affibody FG2-C1 (High) (SEQ ID NO: 42), yeast-displayed (designed binder)
chain: AEAKYTKEGSDAFDVIVLLPNLTRDQRDAFLYALLDDPSQSSELLSEAKKLNDSQAPK
notes: also called FGF-2 High Affibody
With B19, the dissociation constant (Kd) in [1] was 3.08 nM. The binding result in test [2] is listed as “no binding”.

B20: GM-CSF affibody GM4-C3 (Low Affinity) (SEQ ID NO: 14), yeast-displayed (designed binder)
chain: AEAKYAKEGLNAYLSIRWLPNLTGDQMYAFISALLDDPSQSSELLSEAKKLNDSQAPK
As for B20, in [10], binding was characterised by a dissociation constant (Kd) of 3780 nM.

B21: BMP-2 affibody B3-3 (SEQ ID NO: 10), yeast-displayed (designed binder)
chain: AEAKYYKEWVNAYDQIRVLPNLTRFQRLAFYRALYNDPSQSSELLSEAKKLNDSQAPK
With B21, the half-maximal effective concentration (EC50 (read off the curve)) – broadly, the concentration needed to bring the measured effect to its halfway point – in test [4] is ~20 nM.

B22: BMP-2 affibody A3-1 (SEQ ID NO: 8), yeast-displayed (designed binder)
chain: AEAKYAKERLNAIYVINDLPNLTQGQRVAFARALYNDPSQSSELLSEAKKLNDSQAPK
B22: in [4], the binding result is listed as “binds”.
